Measurements: US7592316B2, “Peptides as NS3-serine protease inhibitors of hepatitis C virus” (Schering Corporation, priority 2000, dated 2009)

target: HCV NS3/NS4A protease (strain 1a) (Hepatitis C virus genotype 1a, UniProt P27958); test: biochemical; settings: Table 6; HCV NS3/NS4A protease, 30° C., pH 6.5; read-out: Ki*

SMILES | Ki
CC(C)(C)OC(=O)N[C@H](C(=O)N1C[C@H]2[C@@H]([C@H]1C(=O)NC(CC(F)(F)F)C(=O)C(=O)NCc1ccccc1)C2(C)C)C(C)(C)C (stereo partly drawn) | 101 to 1000 nM
CC(C)(C)OC(=O)N[C@H](C(=O)N1CC2C([C@H]1C(=O)NC(CC1CCC1)C(=O)C(=O)NCC(=O)NCc1ccccc1)C2(C)C)C1CCCCC1 (stereo partly drawn) | 101 to 1000 nM
CCCC(NC(=O)[C@@H]1[C@@H]2[C@H](CN1C(=O)[C@@H](NC(=O)OC(C)(C)C)C(C)(C)C)C2(C)C)C(=O)C(=O)NCC(=O)NC(C)(C)c1ccccc1 (stereo partly drawn) | 101 to 1000 nM
CC(C)(OC(=O)N[C@H](C(=O)N1C[C@H]2[C@@H]([C@H]1C(=O)NC(CC1CCC1)C(=O)C(N)=O)C2(Cl)Cl)C1CCCCC1)C(F)(F)F (stereo partly drawn) | 101 to 1000 nM
C=CCCC(NC(=O)[C@@H]1[C@@H]2[C@H](CN1C(=O)[C@@H](NC(=O)NC(C)(C)C)C(C)(C)C)C2(C)C)C(=O)C(=O)NCCC(=O)NC(C)(C)c1ccccc1 (stereo partly drawn) | 101 to 1000 nM
C=CCNC(=O)C(=O)C(CCC)NC(=O)[C@@H]1[C@@H]2[C@H](CN1C(=O)C(NC(=O)OC1CC3CCC1(C)C3(C)C)C1CCCCC1)C2(C)C (stereo partly drawn) | 101 to 1000 nM
C=CCNC(=O)C(=O)C(CCC)NC(=O)[C@@H]1[C@@H]2[C@H](CN1C(=O)C(NC(=O)OC(C)(C)C(F)(F)F)C1CCCCC1)C2(C)C (stereo partly drawn) | 101 to 1000 nM
CCCC(NC(=O)[C@@H]1[C@@H]2[C@H](CN1C(=O)[C@@H](NC(=O)NC(C)(C)C)C1CCCCC1)C2(C)C)C(=O)C(=O)NCC(=O)CC(C)C (stereo partly drawn) | 101 to 1000 nM
C=CCCC(NC(=O)[C@@H]1[C@@H]2[C@H](CN1C(=O)C(NC(=O)OC(C)(C)C)C1CCCCC1)C2(C)C)C(=O)C(=O)NCCN(CC)CC (stereo partly drawn) | > 1000 nM
C=CCCC(NC(=O)[C@@H]1[C@@H]2[C@H](CN1C(=O)C(NC(=O)OC(C)(C)C)C1CCCCC1)C2(C)C)C(=O)C(=O)NCCC(=O)NCCN(CC)CC (stereo partly drawn) | > 1000 nM
CN(C)C(=O)C(NC(=O)CNC(=O)C(=O)C(CC1CC1)NC(=O)[C@@H]1[C@@H]2[C@H](CN1C(=O)[C@@H](NC(=O)OC(C)(C)C)C(C)(C)C)C2(Cl)Cl)c1ccccc1 (stereo partly drawn) | 1 to 100 nM
CN(Cc1ccccc1)C(=O)CNC(=O)C(=O)C(CC1CC1)NC(=O)[C@@H]1[C@@H]2[C@H](CN1C(=O)[C@@H](NC(=O)OC(C)(C)C)C(C)(C)C)C2(C)C (stereo partly drawn) | > 1000 nM
CC(C)(C)NC(=O)N[C@H](C(=O)N1C[C@H]2[C@@H]([C@H]1C(=O)NC(CC1CCC1)C(=O)C(=O)NCCS(=O)(=O)NCC1CC1)C2(C)C)C(C)(C)C (stereo partly drawn) | 101 to 1000 nM
CN(C(C)(C)C)S(=O)(=O)CCNC(=O)C(=O)C(CC1CCC1)NC(=O)[C@@H]1[C@@H]2[C@H](CN1C(=O)[C@@H](NC(=O)NC(C)(C)C)C(C)(C)C)C2(C)C (stereo partly drawn) | > 1000 nM
C=CCNC(=O)C(=O)C(CC1CC1)NC(=O)[C@@H]1[C@@H]2[C@H](CN1C(=O)[C@@H](NC(=O)OC(C)(C)C)C1Cc3ccccc3C1)C2(C)C (stereo partly drawn) | 101 to 1000 nM
C=CCNC(=O)C(=O)C(CCCC(F)(F)F)NC(=O)[C@@H]1[C@@H]2[C@H](CN1C(=O)[C@@H](NC(=O)OC(C)(C)C)C1CCCCC1)C2(C)C (stereo partly drawn) | 101 to 1000 nM
CNC(=O)C(=O)C(CC1CC1)NC(=O)[C@@H]1[C@@H]2[C@H](CN1C(=O)[C@@H](NC(=O)NC(C)(C)C)C1Cc3ccccc3C1)C2(C)C (stereo partly drawn) | 101 to 1000 nM
CNC(=O)C(=O)C(CCC(F)(F)F)NC(=O)[C@@H]1[C@@H]2[C@H](CN1C(=O)[C@@H](NC(=O)OC(C)(C)C)C1Cc3ccccc3C1)C2(C)C (stereo partly drawn) | 101 to 1000 nM
C=CCCC(NC(=O)[C@@H]1[C@H]2C(CC)[C@H]2CN1C(=O)[C@@H](NC(=O)OC(C)(C)C)C(C)(C)C)C(=O)C(=O)NCCC(=O)N(C)Cc1ccccc1 (stereo partly drawn) | 101 to 1000 nM
C=CCCC(NC(=O)[C@@H]1[C@@H]2[C@H](CN1C(=O)[C@@H](NC(=O)OC(C)(C)C)C(C)(C)C)C2(C)C)C(=O)C(=O)NCCC(=O)N(C)Cc1ccccc1 (stereo partly drawn) | 101 to 1000 nM
CN(C)C(=O)[C@@H](NC(=O)CNC(=O)C(=O)[C@@H](CC1CCC1)NC(=O)[C@@H]1[C@H]2OC(C)(C)O[C@H]2CN1C(=O)[C@@H](NC(=O)NC(C)(C)C)C(C)(C)C)c1ccccc1 | 101 to 1000 nM
CC(C)(C)NC(=O)N[C@H](C(=O)N1C[C@@H]2OC(C)(C)O[C@@H]2[C@H]1C(=O)NC(CC1CCC1)C(=O)C(N)=O)C(C)(C)C (stereo partly drawn) | 101 to 1000 nM
Cc1ccc(S(=O)(=O)CNC(=O)C(=O)C(CC2CC2)NC(=O)[C@@H]2[C@@H]3[C@H](CN2C(=O)[C@@H](NC(=O)OC(C)(C)C)C(C)(C)C)C3(C)C)cc1 (stereo partly drawn) | 101 to 1000 nM
CCCCC(NC(=O)[C@@H]1[C@@H]2[C@H](CN1C(=O)[C@@H](NC(=O)NC(C)(C)C)C1CCCCC1)C2(C)C)C(=O)C(=O)NCC(=O)OC(C)(C)c1ccccc1 (stereo partly drawn) | 1 to 100 nM
CCCCC(NC(=O)[C@@H]1[C@@H]2[C@H](CN1C(=O)[C@@H](NC(=O)NC(C)(C)C)C(C)(C)C)C2(C)C)C(=O)C(=O)NCC(=O)OC(C)(C)c1ccccc1 (stereo partly drawn) | 101 to 1000 nM
CCCCC(NC(=O)[C@@H]1[C@@H]2[C@H](CN1C(=O)[C@@H](NC(=O)NC(C)(C)C)C(C)(C)C)C2(C)C)C(=O)C(=O)NCCS(=O)(=O)N(C)C (stereo partly drawn) | 101 to 1000 nM
C=CCCC(NC(=O)[C@@H]1[C@H]2C(CC)[C@H]2CN1C(=O)[C@@H](NC(=O)NC(C)(C)C)C(C)(C)C)C(=O)C(=O)NCCC(=O)N(C)Cc1ccccc1 (stereo partly drawn) | 101 to 1000 nM
CC(C)(C)NC(=O)N[C@H](C(=O)N1C[C@H]2[C@@H]([C@H]1C(=O)NC(CC1CC1)C(=O)C(=O)NCC(=O)OC(C)(C)c1ccccc1)C2(Cl)Cl)C(C)(C)C (stereo partly drawn) | 1 to 100 nM
CC(C)(C)OC(=O)N[C@H](C(=O)N1C[C@H]2[C@@H]([C@H]1C(=O)NC(CC1CCC1)C(=O)C(=O)NCC(=O)OC(C)(C)c1ccccc1)C2(Cl)Cl)C(C)(C)C (stereo partly drawn) | 101 to 1000 nM
C=CCCC(NC(=O)[C@@H]1[C@@H]2[C@H](CN1C(=O)[C@@H](NC(=O)NC(C)(C)C)C(C)(C)C)C2(C)C)C(=O)C(=O)NCC(=O)C(=O)OC(C)(C)C (stereo partly drawn) | 101 to 1000 nM

Other lines, results leading:

Ki | SMILES
1 to 100 nM | CC(C)(C)OC(=O)N[C@H](C(=O)N1C[C@H]2[C@@H]([C@H]1C(=O)NC(CC1CCC1)C(=O)C(=O)NCC(=O)OCc1ccccc1)C2(C)C)C1CCCCC1 (stereo partly drawn)
1 to 100 nM | C#CCCNC(=O)C(=O)C(CCC=C)NC(=O)[C@@H]1[C@@H]2[C@H](CN1C(=O)[C@@H](NC(=O)OC(C)(C)C)C1CCCCC1)C2(C)C (stereo partly drawn)
1 to 100 nM | CC(C)(C)NC(=O)N[C@H](C(=O)N1C[C@H]2[C@@H]([C@H]1C(=O)NC(CC1CC1)C(=O)C(=O)NCCS(=O)(=O)Cc1ccccc1)C2(C)C)C(C)(C)C (stereo partly drawn)
1 to 100 nM | CCCC(NC(=O)[C@@H]1[C@@H]2[C@H](CN1C(=O)[C@@H](NC(=O)OC(C)(C)C(F)(F)F)C1CCCCC1)C2(Cl)Cl)C(=O)C(N)=O (stereo partly drawn)
1 to 100 nM | CC(C)(C)[C@H](NC(=O)OC(C)(C)C(F)(F)F)C(=O)N1C[C@H]2[C@@H]([C@H]1C(=O)NC(CC1CCC1)C(=O)C(N)=O)C2(Cl)Cl (stereo partly drawn)
1 to 100 nM | CC(C)(C)NC(=O)N[C@H](C(=O)N1C[C@H]2[C@@H]([C@H]1C(=O)NC(CC1CCC1)C(=O)C(=O)NCC(=O)NCc1ccccc1)C2(Cl)Cl)C(C)(C)C (stereo partly drawn)
1 to 100 nM | CCCC(NC(=O)[C@@H]1[C@@H]2[C@H](CN1C(=O)[C@@H](NC(=O)NC(C)(C)C)C1CCCCC1)C2(C)C)C(=O)C(=O)NCC(=O)OC(C)(C)c1ccccc1 (stereo partly drawn)
1 to 100 nM | CC(C)(C)OC(=O)N[C@H](C(=O)N1C[C@H]2[C@@H]([C@H]1C(=O)NC(CC1CC1)C(=O)C(=O)NCC(=O)NCc1ccccc1)C2(C)C)C1CCCC1 (stereo partly drawn)
1 to 100 nM | C=CCNC(=O)C(=O)C(CCC(F)(F)F)NC(=O)[C@@H]1[C@@H]2[C@H](CN1C(=O)[C@@H](NC(=O)OC(C)(C)C)C1Cc3ccccc3C1)C2(C)C (stereo partly drawn)
1 to 100 nM | CC(C)C(=O)[C@@H](NC(=O)CNC(=O)C(=O)C(CC1CCC1)NC(=O)[C@@H]1[C@@H]2[C@H](CN1C(=O)[C@@H](NC(=O)NC(C)(C)C)C1CCCCC1)C2(Cl)Cl)c1ccccc1 (stereo partly drawn)
1 to 100 nM | CCCC(NC(=O)[C@@H]1[C@@H]2[C@H](CN1C(=O)[C@@H](NC(=O)OC(C)(C)C)C1CCCCC1)C2(C)C)C(=O)C(=O)NCC(=O)NCCC(=O)N(C)C (stereo partly drawn)
1 to 100 nM | CN(C)C(=O)C[C@@H](NC(=O)CNC(=O)C(=O)[C@H](CC1CCC1)NC(=O)[C@@H]1[C@H]2OC(C)(C)O[C@H]2CN1C(=O)[C@@H](NC(=O)OC(C)(C)C)C1CCCCC1)c1ccccc1
1 to 100 nM | CCCC(NC(=O)[C@@H]1[C@@H]2[C@H](CN1C(=O)[C@@H](NC(=O)NC(C)(C)C)C1CCCCC1)C2(C)C)C(=O)C(=O)NCCS(=O)(=O)Cc1ccccc1 (stereo partly drawn)
1 to 100 nM | CC(C)(C)OC(=O)N[C@H](C(=O)N1C[C@H]2[C@@H]([C@H]1C(=O)NC(CC1CC1)C(=O)C(=O)NCC(=O)NCc1ccccc1)C2(Cl)Cl)C1CCCCC1 (stereo partly drawn)
1 to 100 nM | C=CCCC(NC(=O)[C@@H]1[C@@H]2[C@H](CN1C(=O)[C@@H](NC(=O)NC(C)(C)C)C1CCCCC1)C2(C)C)C(=O)C(=O)NCCC(=O)N(C)CCc1ccccc1 (stereo partly drawn)
1 to 100 nM | CC(C)(C)NC(=O)N[C@H](C(=O)N1C[C@H]2[C@@H]([C@H]1C(=O)NC(CC1CC1)C(=O)C(=O)NCC(=O)OC(C)(C)c1ccccc1)C2(Cl)Cl)C1CCCCC1 (stereo partly drawn)
1 to 100 nM | CNC(=O)C(=O)C(CC1CC1)NC(=O)[C@@H]1[C@@H]2[C@H](CN1C(=O)[C@@H](NC(=O)OC(C)C(C)C)C1Cc3ccccc3C1)C2(C)C (stereo partly drawn)
1 to 100 nM | CNC(=O)C(=O)C(CC1CC1)NC(=O)[C@@H]1[C@@H]2[C@H](CN1C(=O)[C@@H](NC(=O)OC(C)(C)C(F)(F)F)C1Cc3ccccc3C1)C2(C)C (stereo partly drawn)
1 to 100 nM | CC(C)(C)[C@H](NC(=O)OC(C)(C)C(F)(F)F)C(=O)N1C[C@H]2[C@@H]([C@H]1C(=O)NC(CC1CC1)C(=O)C(N)=O)C2(Cl)Cl (stereo partly drawn)
1 to 100 nM | Cc1ccc(S(=O)(=O)CNC(=O)C(=O)C(CC2CC2)NC(=O)[C@@H]2[C@@H]3[C@H](CN2C(=O)[C@@H](NC(=O)NC(C)(C)C)C(C)(C)C)C3(C)C)cc1 (stereo partly drawn)
1 to 100 nM | CN(C)C(=O)[C@@H](NC(=O)CNC(=O)C(=O)[C@H](CC1CCC1)NC(=O)[C@@H]1[C@H]2OC(C)(C)O[C@H]2CN1C(=O)[C@@H](NC(=O)NC(C)(C)C)C(C)(C)C)c1ccccc1
